According to the RNAGym collection of RNA variant scans (doi:10.7554/elife.90254):
The source gives no read counts; variants with many changes may rest on few reads.

B1: LINE1-mini (parent)
chain: GGCAGAGCUCAACACAGCGUGGCAAAGUGGCUGUGGCUAGACUGCC

Variants of: B1
Assay: self-cleavage, relative activity (ratio to wild type); higher = more cleavage; in vitro, sequencing; the parent is a self-cleaving ribozyme

Q: With GGCCGAGCUGAACACAGCGUGGCAAAGUGGCCGUGGCUAGACUGCC as the variant, how does the self-cleavage read?
A: The self-cleavage was 0.01.

Q: For GGCCGAGCUUACCACAGCGUGGCAAAGUGGCUGUGGCUAGACUGCC, which self-cleavage is on record?
A: Its self-cleavage is 0.02.

Q: Which self-cleavage does the source give for GGCCGAGCUUAACACAGCGUGGCCAAGUGGCUGUGACUAGAUUGCC here?
A: Its self-cleavage is 0.02.

Q: Which self-cleavage does the source give for GGCCGAGCUUAAAACAGCGUGGCAAAGUGGGUGCGUCUAGACUGCC here?
A: The self-cleavage was 0.02.

Q: With GGCCGAGCUUAACAAAGCGUGGCAAAGUGGCUGUGGCUAGACUGCC as the variant, how does the self-cleavage read?
A: Its self-cleavage is 0.04.

Q: For GGCCGAGCUUAACACAGCGUGGGAAAGUGGCUGUUGCUAGACUGCC, which self-cleavage is on record?
A: Its self-cleavage is 0.01.

Q: With GGCCGAGCUUAACACAGCUUGGCAAAGUGGCUGUGGCUAGACUGCC as the variant, how does the self-cleavage read?
A: The self-cleavage was 0.03.

Q: For GGCCGAGCUCAAAUUAGCGUGGCAAAGUGGCAGUGGCUAGAAUGCC, which self-cleavage is on record?
A: Its self-cleavage is 0.9.

Q: With GGCCGAGCUCAAAACAGAGUGGAAAAGUGGCUGUGGCCAGACUGCC as the variant, how does the self-cleavage read?
A: Its self-cleavage is 0.03.

Q: With GGCCGAGCUCAAAACAGGGUGGGAAAGUGGCUGUGGCUAGACUCCC as the variant, how does the self-cleavage read?
A: The self-cleavage was 0.02.

Q: With GGCCGAGCUCAAAACAGCGUAGCAAAGUGGCUGUGGCUAGACUGCC as the variant, how does the self-cleavage read?
A: The self-cleavage was 0.14.

Q: With GGCCGAGCUCAAAACAGCGUUGCAAAGUGGCUGUUGCUAGACUGCC as the variant, how does the self-cleavage read?
A: The self-cleavage was 0.11.

Q: Which self-cleavage does the source give for GGCCGAGCUCAAAACAGCGUGUCAAACUGGCUGUGGCUAGACUGCU here?
A: Its self-cleavage is 0.08.

Q: With GGCCGAGCUCAAAACAGCGUGGCAAAUUGGCUGUGGCUAGACUGCC as the variant, how does the self-cleavage read?
A: The self-cleavage was 0.09.

Q: With GGCCGAGCUCAAGACCGCGUGGCAAAGUUGCUGUGACUAGACUGCC as the variant, how does the self-cleavage read?
A: Its self-cleavage is 0.02.

Q: With GGCCGAGCUCAAGACAGCGUUGCAAAGUGGCUGUGGCUAGACUGCC as the variant, how does the self-cleavage read?
A: The self-cleavage was 0.09.

Q: For GGCCGAGCUCAAGACAGCGUGGCAAAAUGGCUGUGGCUAUACUGCC, which self-cleavage is on record?
A: Its self-cleavage is 0.18.

Q: Which self-cleavage does the source give for GGCCGAGCUCAAGACAGCGUGGCAAAGUAGCUUUGGCUAGACUGCC here?
A: Its self-cleavage is 0.22.

Q: For GGCCGAGCUCAAGACAGCGUGGCAAAGUGGCUGUGGCUACACUGCC, which self-cleavage is on record?
A: The self-cleavage was 0.05.

Q: For GGCCGAGCUCAAUACUGCGUGGCAAAGUGGCUGUGGCUAGACUGCC, which self-cleavage is on record?
A: The self-cleavage was 0.12.

Q: With GGCCGAGCUCAAUACAGCGUGGCAAUGUGGCUGUGGCUAGACUGCC as the variant, how does the self-cleavage read?
A: The self-cleavage was 0.05.

Q: For GGCCGAGCUCAAUACAGUGUGGUAAAGUGGCUGUGGCUAGAGUGCC, which self-cleavage is on record?
A: Its self-cleavage is 0.03.

Q: With GGCCGAGCUCAAUACAGCGUGGGAAAGGGGAUGUGGCUAGACUGCC as the variant, how does the self-cleavage read?
A: The self-cleavage was 0.04.

Q: For GGCCGAGCUCAAUACAGCGUGGUAAAGUGGCUGUGGGUAGACUGCC, which self-cleavage is on record?
A: The self-cleavage was 0.05.

Q: For GGCCGAGCUCAAUACAGCCUGGGAAAGUGGCUGUGGCUAGACUGCC, which self-cleavage is on record?
A: Its self-cleavage is 0.07.

Q: With GGCCGAGCUCAAUACAGCGUGGCAAAGUGGCAGUGGCUAGACUGCC as the variant, how does the self-cleavage read?
A: Its self-cleavage is 0.05.

Q: Which self-cleavage does the source give for GGCCGAGCUCAACAAAGCGUGGCAAAGUGGAUGUGGCUAGACUGCC here?
A: The self-cleavage was 0.04.

Q: Which self-cleavage does the source give for GGCCGAGCUCAACAAAGCGUGGCAAAGUGGCUGUGGUUAGACUGCC here?
A: Its self-cleavage is 0.13.

Q: With GGCCGAGCUCAACAAACCGUGGCAAAGUGGCUGUAGCUAUACUGCC as the variant, how does the self-cleavage read?
A: The self-cleavage was 0.08.

Q: For GGCCGAGCUCAACAAAGCGUAGCAAAGUGGCUGUAGUUUGACUGCC, which self-cleavage is on record?
A: The self-cleavage was 0.5.

Q: Which self-cleavage does the source give for GGCCGAGCUCAACAAAGCGUGGCAAAAUGGCUGUGGCUAGAGUGCC here?
A: Its self-cleavage is 0.08.

Q: Which self-cleavage does the source give for GGCCGAGCUCAACAGAGCGUGGCAAAGUGGCUGUGGCUUGACUGCC here?
A: Its self-cleavage is 0.

Q: With GGCCGAGCUCAACAGAGCGUAGCAAAGUGGCUGUAGCUAGACUGCC as the variant, how does the self-cleavage read?
A: Its self-cleavage is 0.03.

Q: For GGCCGAGCUCAACAGAGCGUCGCAAAGUGGCUGUGGCUAGACUGCC, which self-cleavage is on record?
A: Its self-cleavage is 0.02.

Q: For GGCCGAGCUCAACAGAGCGUCGCGAAGUGGCUGUGGCUAGCCUGCC, which self-cleavage is on record?
A: Its self-cleavage is 0.15.

Q: With GGCCGAGCUCAACAUAGAGUGGCAAAGUGGCUAUGGCUAGACUGCC as the variant, how does the self-cleavage read?
A: Its self-cleavage is 0.03.

Q: Which self-cleavage does the source give for GGCCGAGCUCAACAUAGCGUAGCAAAGUGGCUGCGUCUUGACUGCC here?
A: The self-cleavage was 0.13.

Q: With GGCCGAGCUCAACAUAGCGUGGCAAAGUGGCUUUGGUUAAACUGCC as the variant, how does the self-cleavage read?
A: Its self-cleavage is 0.01.

Q: Which self-cleavage does the source give for GGCCGAGCUCAACAUAGCGUGGCAAAGUGGCUGCGGCUAGACUGCC here?
A: The self-cleavage was 0.04.

Q: For GGCCGAGCUCAACAUAGCGUGGCAAAGUGGCUGUGGCAAGACUGCC, which self-cleavage is on record?
A: The self-cleavage was 0.03.

Q: With GGCCGAGCUCAACACAGAGUGGCCUAGUGGCUGUGGCUAGACUGCC as the variant, how does the self-cleavage read?
A: Its self-cleavage is 0.02.

Q: With GGCCGAGCUCAACACAGAGUGGCUAAGUGGCUGUGGCUAGACCAUC as the variant, how does the self-cleavage read?
A: The self-cleavage was 0.01.

Q: For GGCCGAGCUCAACACAGAGUGGAAAAGUGGCUGGGGCGAGACUGCC, which self-cleavage is on record?
A: Its self-cleavage is 0.03.

Q: With GGCCGAGCUCAACACAGAGUGGCAAAGUGGCUGUGGCUAGACUGAC as the variant, how does the self-cleavage read?
A: Its self-cleavage is 0.01.

Q: With GGCCGAGCUCAACACAGAGUGUCAAAGUGGCUGUUGCUAGAUUGCC as the variant, how does the self-cleavage read?
A: The self-cleavage was 0.03.

Q: With GGCCGAGCUCAACACAGAGGGACAAAGUGGCUGUGGCUAGACUGCC as the variant, how does the self-cleavage read?
A: The self-cleavage was 0.03.

Q: For GGCCGAGCUCAACACAGAGUGGCAAAGUGGCUGCGGCUAGACUGCC, which self-cleavage is on record?
A: The self-cleavage was 0.02.

Q: For GGCCGAGCUCAACACAGGUUGGCAAAGUGGCUGUGGCUAGACUGCC, which self-cleavage is on record?
A: Its self-cleavage is 0.02.

Q: With GGCCGAGCUCAACACAGGGUAGCAAAGUGGCUGUGGCUAGACUGCC as the variant, how does the self-cleavage read?
A: Its self-cleavage is 0.03.

Q: For GGCCGAGCUCAACACAGGGUGGCAAAGUGGCUGUUGCUAGCCUGCC, which self-cleavage is on record?
A: Its self-cleavage is 0.02.

Q: For GGCCGAGCUCAACACAGUGUGGCAAAGUGGCUGUGGCUAGACUUUC, which self-cleavage is on record?
A: Its self-cleavage is 0.06.

Q: With GGCCGAGCUCAACACAGUGUGGCAAAGGGGCUGUGACUAGACUGCC as the variant, how does the self-cleavage read?
A: The self-cleavage was 0.05.

Q: For GGCCGAGCUCAACACAGCGUGGAAAAGUGGCUGUGGCUAGACUGCG, which self-cleavage is on record?
A: The self-cleavage was 0.11.

Q: Which self-cleavage does the source give for GGCCGAGCUCAACACAGCGUGGAAAAGUGGCUGUGGCUAGACUGCU here?
A: Its self-cleavage is 0.01.

Q: With GGCCGAGCUCAACACAGCGUGGAAAACUGGCUGUGGCUAGACUGCC as the variant, how does the self-cleavage read?
A: Its self-cleavage is 0.03.

Q: For GGCCGAGCUCAACACAGCGUGGAAAAGUUGCCGUGGCUAGACUGCC, which self-cleavage is on record?
A: The self-cleavage was 0.13.
